# Results: PubChem BioAssay (NCATS)
# The shares of active, inactive and inconclusive entries below differ from those in the screen. Where the call is inconclusive, the potency comes from a doubtful curve fit. Active and inactive are the calls of the source. Calls come from the whole dose curve; as a rule, active = well fitted inhibition curve with a large enough effect; inconclusive = small, poorly fitted or top-dose-only effect; inactive = no such curve, though single readings can be large or run the other way.
# Molecular target: Pyruvate kinase PKM (Homo sapiens) (UniProt P14618)
# Sequence of UniProt P14618 (P14618 whole entry, looked up): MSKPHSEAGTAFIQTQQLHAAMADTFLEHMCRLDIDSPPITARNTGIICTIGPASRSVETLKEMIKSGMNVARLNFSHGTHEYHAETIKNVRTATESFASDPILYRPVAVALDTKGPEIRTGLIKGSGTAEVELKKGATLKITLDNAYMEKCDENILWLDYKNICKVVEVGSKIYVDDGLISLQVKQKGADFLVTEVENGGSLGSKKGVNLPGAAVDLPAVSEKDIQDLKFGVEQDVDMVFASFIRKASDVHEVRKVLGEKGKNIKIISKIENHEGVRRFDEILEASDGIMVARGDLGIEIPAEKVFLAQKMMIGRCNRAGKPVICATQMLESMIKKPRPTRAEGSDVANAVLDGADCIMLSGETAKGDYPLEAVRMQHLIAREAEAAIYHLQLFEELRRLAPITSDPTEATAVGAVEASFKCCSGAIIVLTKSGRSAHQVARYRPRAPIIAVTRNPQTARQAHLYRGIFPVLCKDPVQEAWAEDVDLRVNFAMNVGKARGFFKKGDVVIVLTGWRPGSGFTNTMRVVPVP
# Test: qHTS Assay for Inhibitors of Human Muscle Pyruvate Kinase (AID 958)
# Details: purified human PKM enzyme activity; series mostly up to 57.5 µM
# Protocol: NIH Molecular Libraries Screening Centers Network [MLSCN]
# NIH Chemical Genomics Center [NCGC]
# Wael M. Rabeh, Lyudmila Nedyalkova and Hee-Wan Park [Structural Genomics Consortium, 100 College St. Toronto, Ontario, Canada]
# Human pyruvate kinase muscle 2 enzyme was supplied as a highly purified (>95% pure) preparation by the Structural Genomics Consortium in Toronto (Ontario, Canada) and was assayed for its ability to generate ATP from ADP using phosphoenolpyruvate (PEP) as a substrate. ATP generation was detected in a coupled reaction by luciferase-mediated luminescence, an ATP-dependent process. Pyruvate kinase substrates, PEP and ADP, were present in the assay at Km and approximately […]-fold below Km respectively. The enzyme was assayed at an intermediate level of activity to screen for inhibitors and activators.
# NCGC Assay Protocol Summary:
# Three uL of substrate mix (final concentration, 50 mM imidazole pH 7.2, 50 mM KCl, 7 mM MgCl2, 0.5 mM PEP, 0.1 mM ADP, 0.01% Tween 20, 0.05% BSA) was dispensed into 1536 well plates. 23 nL of compound were delivered by a pin tool and 1 uL of enzyme mix (final concentration, 0.1 nM pyruvate kinase, 50 mM imidazole pH 7.2, 0.05% BSA) was added. Plates were incubated at room temperature for 1 hour. Two uL of detection and kinase stop mix (PKLight, Cambrex) was added, the plates centrifuged, and luminescence read by a ViewLux (Perkin Elmer) at 5 second exposure/plate. Data were normalized to the uninhibited and AC100 inhibition (no enzyme or 110 uM N-methyl-2,3-diphenyl-1,2,4-thiadiazol-5-imine; CID: 682802; LOPAC-S-4063). To monitor activation, 0.3 nM pyruvate kinase was included in one control column.
row,SMILES,Potency
1,Nc1ccc(-c2nc3ccc(-c4nc5ccc(N)cc5[nH]4)cc3[nH]2)cc1,"inconclusive: 15.8 µM [inhibitor, partial curve]"
2,COc1ccc2c(c1)c(CC(=O)O)c(C)n2Cc1ccc(Cl)cc1,"inconclusive: 39.8 µM [inhibitor, partial curve]"
3,Cc1nc(N=Nc2cc(S(=O)(=O)O)c3cc([N+](=O)[O-])cc(S(=O)(=O)O)c3c2)c(COP(=O)(O)O)c(C=O)c1O,"inconclusive: 12.6 µM [inhibitor, partial curve]"
4,O=C1Cc2c([nH]c3ccc(Br)cc23)-c2ccccc2N1,"inconclusive: 3.16 µM [inhibitor, full curve, poor fit]"
5,N=C(N)c1ccccc1,"inconclusive: 0.0631 µM [inhibitor, full curve]"
6,O=c1onc2n1-c1cc(Br)ccc1OC2,"inconclusive: 0.0126 µM [inhibitor, full curve, poor fit]"
7,N#C/C(=C\c1ccc(O)c(O)c1)C(=O)NCc1ccccc1,"inconclusive: 0.0063 µM [inhibitor, full curve]"
8,CNC(=O)c1cc2c(cn1)[nH]c1ccccc12,"inconclusive: 20 µM [inhibitor, partial curve]"
9,Cc1cc(NC(=O)Nc2ccc3c(ccn3C)c2)sn1,"inconclusive: 15.8 µM [inhibitor, partial curve]"
10,N#CC(C#N)=C(N)/C(C#N)=C/c1ccc(O)cc1,"inconclusive: 31.6 µM [inhibitor, partial curve]"
11,NS(=O)(=O)c1cccc2c1c([N+](=O)[O-])cc1nc(O)c(O)nc12,inactive
12,O=C(Nc1ccccc1)c1cc([N+](=O)[O-])ccc1Cl,"inconclusive: 39.8 µM [inhibitor, partial curve]"
13,Oc1cc2c(cc1O)CN(C(=S)NCCc1ccc(Cl)cc1)CCC2,inactive
14,O=C(O)C1=CC(=C(c2ccc(O)c(C(=O)O)c2)c2ccc(O)c(C(=O)O)c2)C=CC1=O,inactive
15,N#C/C(=C\c1ccc(O)c(O)c1)C(=O)NCCc1ccccc1,"inconclusive: 0.0032 µM [inhibitor, full curve]"
